The other results are listed elsewhere or left out. For some assays here: At the low end of the ranking, values are background and their order means little. For some assays here: The protein was read in a cell extract, so binding may be indirect.
What follows are sequences tested against PU.1 (IVT) (UniProt P17947) (assay: protein-binding microarray (PBM)). Conditions: 20 mM HEPES pH 7.9, 100 mM NaCl, 1 mM DTT, 0.2 mg/mL BSA, 0.02% Triton X-100, 2% milk, 0.4 mg/mL salmon testes DNA; 1 h; temperature not stated; high values mean tight binding; double strand, one strand shown; sequences stand for … in GCCTAGCAC…GTGCTAGGTCTTGATTCGCTTGACGCTGCTG.
TGGAAGAAGAAGTGAAACAA gave a binding signal of 1.56 z-score.
In the case of GAGAGGAGGAAGTGAAACTG, the binding signal is reported as 4.65 z-score.
Work on CTGCAAAGGAAGTGAAACTC yielded a binding signal of 1.58 z-score.
In the case of TTAAAGAGGAAGAGAAACTT, the binding signal is reported as 3.4 z-score.
With GATAAGAGGAACTGACAGCT the binding signal was 4 z-score.
GCTTTAAGGAACTGAAACTG gave a binding signal of 2.65 z-score.
Work on AAAAAGGGGAAATGAAACTA yielded a binding signal of 6.37 z-score.

What follows are sequences tested against T1, FLI1 (endogenous, THP-1 nuclear extract) (UniProt Q01543) (assay: nuclear extract protein-binding microarray (nextPBM)). Conditions: 20 mM HEPES pH 7.9, 100 mM NaCl, 1 mM DTT, 0.2 mg/mL BSA, 0.02% Triton X-100, 2% milk, 0.4 mg/mL salmon testes DNA; 1 h; temperature not stated; high values mean tight binding; double strand, one strand shown; sequences stand for … in GCCTAGCAC…GTGCTAGGTCTTGATTCGCTTGACGCTGCTG.
T1 sequence: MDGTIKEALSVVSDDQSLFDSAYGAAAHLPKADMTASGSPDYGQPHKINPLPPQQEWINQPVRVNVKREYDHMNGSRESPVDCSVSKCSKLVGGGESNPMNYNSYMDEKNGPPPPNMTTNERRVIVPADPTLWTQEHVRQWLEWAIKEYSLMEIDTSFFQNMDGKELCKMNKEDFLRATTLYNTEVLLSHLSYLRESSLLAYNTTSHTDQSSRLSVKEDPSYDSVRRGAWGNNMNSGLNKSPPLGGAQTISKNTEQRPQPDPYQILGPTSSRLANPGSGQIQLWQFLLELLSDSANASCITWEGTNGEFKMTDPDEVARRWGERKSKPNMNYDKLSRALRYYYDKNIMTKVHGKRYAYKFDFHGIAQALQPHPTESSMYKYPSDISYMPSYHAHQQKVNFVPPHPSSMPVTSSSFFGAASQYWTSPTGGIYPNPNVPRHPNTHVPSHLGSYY
Sequence TTGCCAGGGAAGTGAAAGCA has a binding signal of 1.02 z-score.
Sequence AAGGTGAGGAACTGAAACTT has a binding signal of 1.15 z-score.
CAGGCAAGGAACTGAAACTC showed a binding signal of 0.242 z-score.
With TGAGAGGAGAAGTGAGACCT the binding signal was -0.262 z-score.
TAAAGGATGAACTGAAACCA was tested, and the binding signal was 0.472 z-score.
CTGGCAGGGAACTGAGACTC gave a binding signal of -0.688 z-score.
Work on GGAGAGGAGAAGTGAAACCT yielded a binding signal of 0.714 z-score.
Sequence GGGGAGAGGAAGTGAAAGCA has a binding signal of 3.11 z-score.
With GATAAGAGGAACAGAAAGCT the binding signal was 0.0235 z-score.
For AAAAATAGGAAGTGAAACTG, the binding signal was 4.46 z-score.
Sequence TGAAACAGCAAGTGAAACCA has a binding signal of 0.0336 z-score.
With CAAAGAAGGAAGTGAAACTG the binding signal was 2.99 z-score.
For CTGCCAGGGAAGTGAAAGTA, the binding signal was 1.06 z-score.
In the case of TGTGAAAGGAAGTGAAACTG, the binding signal is reported as 2.78 z-score.
TGAGAGTAGAAGTGAAACCT showed a binding signal of -0.0654 z-score.
CGAAACAGGAAGTGAAACCA was tested, and the binding signal was 5.85 z-score.
TGCAGGTGGAAGTGAAACTG gave a binding signal of 1.7 z-score.
GTAACAAGGAACTGAAACTC gave a binding signal of 1.16 z-score.
Work on TAAAGGAGGAACTGAAAACA yielded a binding signal of 1.24 z-score.
With TAAACGAGGAACTGAAACCA the binding signal was 1.32 z-score.
Sequence GATAAGAGGAACTGAAAGCA has a binding signal of 1.66 z-score.
Sequence CTGCCAGGGAATTGAAAGCA has a binding signal of -0.243 z-score.
TAAAGGAGGTACTGAAACCA was tested, and the binding signal was -0.127 z-score.
CTGCCAGGGAAATGAAAGCA was tested, and the binding signal was 0.383 z-score.
With TGAAACAAGAAGTGAAACCT the binding signal was 0.589 z-score.
Sequence GAAAGGAGGAACTGAAACCA has a binding signal of 2.69 z-score.
TCAAACAGGAAGTGAAACCA was tested, and the binding signal was 5.84 z-score.
TGACAGGAGAAGTGAAACCT gave a binding signal of 0.563 z-score.
TGAAAAAGGAAGTGAAACCA showed a binding signal of 3.74 z-score.
ATAGGGAGGAAGTGAAACTT showed a binding signal of 3.62 z-score.
Work on TGAAGCAGGAAGTGAAACCA yielded a binding signal of 4.66 z-score.
AAAAAAAGGAAATGACAGTA gave a binding signal of 2.24 z-score.
For GTTTTGAGGAAGTGAAACTC, the binding signal was 3.42 z-score.
With TGGAAGAAGAAGTGAAACAA the binding signal was 0.777 z-score.
Sequence GAGAGGAGGAAGTGAAACTG has a binding signal of 3.65 z-score.
With CTGCAAAGGAAGTGAAACTC the binding signal was 2.24 z-score.
TTAAAGAGGAAGAGAAACTT was tested, and the binding signal was 1.58 z-score.
In the case of GATAAGAGGAACTGACAGCT, the binding signal is reported as 1.55 z-score.
With GCTTTAAGGAACTGAAACTG the binding signal was 1.67 z-score.
AAAAAGGGGAAATGAAACTA was tested, and the binding signal was 3.94 z-score.

Source: PMC6451091
